The results in this text go back to the antibiotic and cytotoxicity screens of Wong et al. (2023).

One assay deals with HSkMC. As to the kind of experiment: cytotoxicity call (relative viability < 0.9). The note with it: 10 µM.
The subject of another assay is S. aureus RN4220. Briefly: growth inhibition call (relative growth <= 0.2). The note with it: 50 µM.

The other results are listed elsewhere or left out.

As to `COc1ccc(S(=O)(=O)N(C)C[C@@H]2Oc3cc(-c4ccccc4OC)ccc3S(=O)(=O)N([C@H](C)CO)C[C@H]2C)cc1`, the cytotoxicity call in the assay with HSkMC was “inactive”. Also, in the assay on S. aureus RN4220, the growth inhibition call is “inactive”.
On to `C[C@H](CO)N1C[C@H](C)[C@H](CN(C)Cc2ccc(C(=O)Nc3ccccc3N)cc2)Oc2ccc(NC(=O)Nc3ccc4c(c3)OCO4)cc2CC1=O`, for which the cytotoxicity call with HSkMC was “inactive”. For the same compound, the growth inhibition call in the assay on S. aureus RN4220 is “inactive”.
As for `Cc1ccc(C(=O)N2c3ccccc3Sc3ccccc32)cc1`, the cytotoxicity call with HSkMC was “inactive”. The growth inhibition call in the assay on S. aureus RN4220 is “inactive”.
`C[C@H]1CN([C@@H](C)CO)C(=O)Cc2cc(NS(=O)(=O)c3ccccc3)ccc2O[C@H]1CN(C)Cc1ccc(Cl)c(Cl)c1`: in the assay on HSkMC, the cytotoxicity call is “inactive”. In addition, the growth inhibition call in the assay on S. aureus RN4220 was “inactive”.
As to `COc1ccc2c3c(n(c2c1)C)[C@H](CO)N(C[C@]13CCN(CC1)Cc1ccccc1F)C(=O)Nc1ccc(cc1)F`, the cytotoxicity call with HSkMC was “inactive”. For the same compound, the growth inhibition call with S. aureus RN4220 was “inactive”.
As to `NC(=O)c1cccc(Br)n1`, in the assay on HSkMC, the cytotoxicity call is “inactive”. Moreover, the growth inhibition call in the assay on S. aureus RN4220 is “inactive”.
As for `CC(C)CC#Cc1ccc2c(c1)O[C@@H](CN(C)S(=O)(=O)c1cccc(F)c1)[C@H](C)CN([C@@H](C)CO)S2(=O)=O`, the cytotoxicity call in the assay on HSkMC is “inactive”. The growth inhibition call with S. aureus RN4220 is “inactive”.
Take `C[C@H]1CCCCO[C@@H](CN(C)Cc2ccc3c(c2)OCO3)[C@@H](C)CN([C@@H](C)CO)C(=O)c2cc(NS(=O)(=O)c3ccc(F)cc3)ccc2O1`: the cytotoxicity call in the assay on HSkMC (human skeletal muscle cells) was “inactive”. Besides, in the assay on S. aureus RN4220, the growth inhibition call was “inactive”.
As for `C[C@H]1CN([C@@H](C)CO)C(=O)c2cccc(NC(=O)Nc3cccc4ccccc34)c2O[C@H]1CN(C)CC1CCCCC1`, the cytotoxicity call with HSkMC was “inactive”. In the assay with S. aureus RN4220, the growth inhibition call is “inactive”.
For the compound `C[C@H](CO)N1C[C@H](C)[C@@H](CN(C)Cc2ccccc2)OCCCC[C@H](C)Oc2ccc(NC(=O)Nc3cccc4ccccc34)cc2C1=O`, the cytotoxicity call with HSkMC was “active”. For the same compound, the growth inhibition call in the assay on S. aureus RN4220 is “inactive”.
